Measured values as given in PubChem BioAssay AID504706 (National Center for Advancing Translational Sciences (NCATS), 2011).
The campaign covered roughly 320,000 compounds. About 200 (0.062%) were called active. Inconclusive results, whose numbers are uncertain, are shown with a selection of clear calls. Calls follow the shape of the dose curve; as a rule, active = well fitted activation curve with a large enough effect; inconclusive = small, poorly fitted or top-dose-only effect; inactive = no such curve, though single readings can be large or run the other way. Potencies of inconclusive entries are left out as doubtful fits.

Experiment: qHTS assay for re-activators of p53 using a Luc reporter; also: nearly all actives have a fitted effect of over 45% in size; as to activity change, positive = activation: % of control where 0% means no effect
Settings: H1299 p53-A138V BP100-luciferase reporter, luminescence, 24 h; series mostly up to 92.2 µM; activity change, positive = activation: at the top concentration
How it was run: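 H1299 (p53-null), stable ts p53-A138V + BP100-Luc; 1000 cells/well, Opti-MEM/10% FBS; cpd 4 pt, 1:5; 24 h, 37 deg C, 5% CO2; detection reagent 10 min RT; luminescence.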
Potency is read from the fitted curve at half-maximal effect; tags tell the direction and shape of the fitted curve.

Compound | Potency | activity change, positive = activation
COc1ccccc1OCc1cc(-c2ccccc2)no1 | inconclusive [activator, partial curve, poor fit] | 
Cc1ccc(C=Nc2cccnc2N)cc1 | inconclusive [activator, partial curve, poor fit] | 
COc1ccc(-c2cc(C(=O)NCCN3CCOCC3)c3ccccc3n2)cc1OC |  | inactive: -0.0166%
O=C(NCCc1ccc2c(c1)OCCO2)c1ccc(F)cc1 | inconclusive [activator, full curve] | 
O=C(O/N=C1/CCCc2occc21)c1ccc(F)cc1 |  | inactive: 1.56%
COCC(=O)OC/C(O)=C(\C#N)c1nc2ccccc2[nH]1 |  | inactive: -6.37%
O=C(Cc1cc(=O)oc2cc(O)ccc12)NC(Cc1ccc(Cl)cc1)C(=O)O (stereo not given) |  | inactive: -2.97%
N#Cc1ccc(C2=CC(=O)C[C@H](c3ccc4c(c3)OCO4)C2)cc1 | inconclusive [activator, single point] | 
Cc1ccc(OC(=O)NC2CCS(=O)(=O)C2)cc1C (stereo not given) |  | inactive: -7.16%
O=c1cc(-c2ccc3c(c2)OCO3)oc2ccccc12 | inconclusive [activator, full curve, poor fit] | 
Cc1ccc(OC(=O)COc2ccccc2)c(-n2nc3ccccc3n2)c1 | inconclusive [activator, full curve, poor fit] | 
COc1ccc(-c2noc(CCC(=O)Nc3cc(Cl)c(OC)cc3OC)n2)cc1 |  | inactive: 9.96%
COc1ccc(NC(=O)CSCC(=O)NCc2cccc(C(F)(F)F)c2)cc1 |  | inactive: -4.59%
CC(C)C(=O)OC/C(O)=C(\C#N)c1nc2ccccc2[nH]1 |  | inactive: -0.476%
O=C(CCS(=O)(=O)c1ccccc1)Nc1ncc([N+](=O)[O-])s1 | inconclusive [activator, single point] | 
CC(=O)Oc1ccc(-c2cccc(C(=O)OCC(=O)N(C)c3ccccc3)c2)cc1 | inconclusive [activator, single point] | 
CN(Cc1ccccc1)C(=O)c1ccccc1C(=O)O |  | inactive: 5.61%
CCOc1ccc2nc(N3CCCC(C(=O)NC4CCCC4)C3)sc2c1 (stereo not given) | inconclusive [activator, partial curve, poor fit] | 
O=c1c(-c2ccc(O)cc2)coc2cc(OC3OC(CO)C(O)C(O)C3O)ccc12 (stereo not given) | inconclusive [activator, partial curve, poor fit] | 
Cc1cc(C)c(-c2c(O)c3c(n(C)c2=O)CC(C)(C)CC3=O)c(C)c1 |  | inactive: -2.19%
Cc1cccc(Nc2ncc3c(n2)CC(C)CC3=O)c1 (stereo not given) | inconclusive [activator, partial curve, poor fit] | 
CCOC(=O)N/N=C\c1ccc(C)s1 | inconclusive [activator, partial curve, poor fit] | 
O=C(COc1cccc2cccnc12)N/N=C/c1ccc(O)cc1 | inconclusive [activator, single point] | 

Compound | Potency | activity change, positive = activation
COc1ccc(/C=C/C(=O)NC2CCCCCC2)cc1S(=O)(=O)N1CCOCC1 | inconclusive [activator, partial curve, poor fit] | 
COc1ccccc1NS(=O)(=O)c1cc(NC(=O)Cc2n[nH]c(=O)c3ccccc23)ccc1Cl |  | inactive: -8.3%
O=C(CSc1ccc(-c2ccccn2)nn1)c1ccc(F)cc1 | inconclusive [activator, single point] | 
Cc1ccc2nc(-c3cccc(N)c3)oc2c1 | inconclusive [activator, partial curve, poor fit] | 
O=C(Nc1nccs1)c1cnccn1 | inconclusive [activator, partial curve, poor fit] | 
CCOC(=O)COc1coc(CN2CCN(c3ccccc3)CC2)cc1=O |  | inactive: -2.19%
Cc1ccc(/C=C/C(=O)NC(=S)N2CCN(C)CC2)cc1 |  | inactive: -1.02%
Cn1c(SCc2ccc(F)cc2)nnc1-c1ccccn1 | inconclusive [activator, partial curve, poor fit] | 
CN(C)c1ccc(CNn2cnnc2)cc1 |  | inactive: 0.56%
Cc1c(C(=O)NCc2ccco2)sc2nc(-c3ccccc3)cn12 | inconclusive [activator, partial curve, poor fit] | 
CCN(CC)CCNC(=O)c1ccc(NC(=O)c2cc(S(=O)(=O)N3CCCCC3)ccc2C)cc1 | inconclusive [activator, single point] | 
Cc1cc(NC(=O)c2ccc(NC(=O)C3CCCO3)cc2)ccc1Br (stereo not given) | inconclusive [activator, partial curve, poor fit] | 
Cc1ccc(Nc2c(-c3ccco3)nc3ccccn23)cc1 | inconclusive [activator, full curve, poor fit] | 
CCCc1ccc(OC(=O)c2ccc(O)cc2Cl)cc1 | inconclusive [activator, full curve, poor fit] | 
CC(=O)c1ccc(NC(=O)c2ccc(N3C(=O)c4cccnc4C3=O)cc2)cc1 | inconclusive [activator, full curve, poor fit] | 
Cc1cc(C)nc(OC(C(=O)O)C(OCCC(C)C)(c2ccccc2)c2ccccc2)n1 (stereo not given) | inconclusive [activator, single point] | 
CCC(=O)Nc1ccc(NC(=O)c2ccccc2Cl)nc1 | inconclusive [activator, partial curve, poor fit] | 
CC1(C)CC(=O)c2cnc(NC(=O)c3ccco3)nc2C1 | inconclusive [activator, full curve, poor fit] | 
O=C(NC(=S)NC1CCCCC1)c1ccccc1 | inconclusive [activator, partial curve, poor fit] | 
CCN1CCN(c2cc(C)c3cc(NC(=S)N4CCN(c5ccccc5)CC4)ccc3n2)CC1 |  | inactive: -0.0135%
COc1cccc(OC)c1C(=O)NNC(=O)c1cccc(COc2ccc3c(c2)CCC3)c1 | inconclusive [activator, partial curve, poor fit] | 
Cc1cc([N+](=O)[O-])nn1CC(=O)Nc1nc2ccccc2s1 | inconclusive [activator, partial curve, poor fit] | 
